Reference: PMC4336329 (PLoS ONE, 2015)
Out of some 310,000 compounds screened, about 2,200 (0.71%) showed an effect of 50% or more. Effects have a minus sign here. This is one part of the list.

Molecular target: human ether-à-go-go-related gene (hERG) potassium channel (human, UniProt Q12809)
Test: primary screen, population patch clamp on CHO cells stably expressing hERG

Chain of human ether-à-go-go-related gene (hERG) potassium channel (Q12809 whole entry, looked up): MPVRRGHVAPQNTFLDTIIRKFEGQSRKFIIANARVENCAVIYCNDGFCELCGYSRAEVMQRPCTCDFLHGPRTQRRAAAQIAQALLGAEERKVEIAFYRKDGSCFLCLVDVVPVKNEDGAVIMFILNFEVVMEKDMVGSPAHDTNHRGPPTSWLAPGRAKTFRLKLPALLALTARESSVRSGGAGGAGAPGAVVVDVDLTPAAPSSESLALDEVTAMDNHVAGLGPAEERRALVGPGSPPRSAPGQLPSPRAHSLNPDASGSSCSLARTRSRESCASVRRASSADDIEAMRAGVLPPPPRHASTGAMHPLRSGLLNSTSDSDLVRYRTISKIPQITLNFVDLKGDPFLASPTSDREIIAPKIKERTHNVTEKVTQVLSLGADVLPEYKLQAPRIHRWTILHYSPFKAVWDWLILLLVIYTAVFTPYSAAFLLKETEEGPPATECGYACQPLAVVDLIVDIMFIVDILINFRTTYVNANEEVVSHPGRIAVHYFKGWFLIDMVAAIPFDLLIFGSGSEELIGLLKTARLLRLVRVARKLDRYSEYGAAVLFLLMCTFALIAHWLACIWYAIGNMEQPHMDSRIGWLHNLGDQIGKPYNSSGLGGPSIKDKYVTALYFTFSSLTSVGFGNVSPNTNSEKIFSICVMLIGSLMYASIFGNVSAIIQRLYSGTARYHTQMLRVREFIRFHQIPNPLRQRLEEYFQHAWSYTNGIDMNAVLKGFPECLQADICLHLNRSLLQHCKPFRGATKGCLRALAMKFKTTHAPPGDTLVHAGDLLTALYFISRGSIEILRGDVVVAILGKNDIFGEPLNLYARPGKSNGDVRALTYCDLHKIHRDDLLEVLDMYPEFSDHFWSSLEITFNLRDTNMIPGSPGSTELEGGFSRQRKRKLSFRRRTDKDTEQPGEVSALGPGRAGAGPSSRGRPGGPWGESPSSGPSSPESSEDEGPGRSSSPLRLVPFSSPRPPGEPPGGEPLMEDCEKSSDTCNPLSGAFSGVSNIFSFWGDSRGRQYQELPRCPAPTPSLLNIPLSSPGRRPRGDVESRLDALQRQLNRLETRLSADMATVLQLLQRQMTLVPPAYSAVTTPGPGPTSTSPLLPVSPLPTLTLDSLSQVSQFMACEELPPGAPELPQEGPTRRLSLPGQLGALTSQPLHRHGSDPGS

SMILES	hERG current change (%, negative = inhibition) at 1uM [%]
C=CCn1c(CSc2nc3ccccc3s2)n[nH]c1=S	7.5
O=C(NC1CCCN(Cc2ccc(Cl)cc2)C1)c1cnc2ccccn2c1=O (centres unmarked)	5.87
Cc1cc(C)nc(NC(=O)c2ccc(Cl)cc2)n1	7.81
O=C(CN1CCCCC1)NC(=O)NC1CCCCC1	8.35
CCOc1ccc(OCCNC(=O)c2oc3ccccc3c2COC)cc1	-4.97
O=c1ccn(CCOc2ccc(Cl)cc2)c(=O)[nH]1	4.71
COc1ccc(C(=O)NCC(=O)OCc2ccc(Br)cc2)cc1	8.43
O=C(CCC(=O)NC1CC1)Nc1nnc(C2CCCCC2)s1	10.8
O=C(/C=C/c1ccco1)OCC(=O)c1ccc(OC(F)F)cc1	5.28
COc1ccc(/C=N/NC(=O)c2cccc(NC(=O)c3ccccc3)c2)c(C(=O)O)c1OC	13.9
Cc1ccc2nc(-c3ccccc3)cc(C(=O)Nc3cccnc3)c2c1	0.355
COc1cc(C(=O)N(C)C2CCCCC2)ccc1OC1CCN(C(C)=O)CC1	19.7
O=C(c1ccco1)N1CCN(Cc2cn[nH]c2-c2cccc3ccccc23)CC1	2.23
O=C1c2ccccc2C(=O)N1CCOc1ccc(F)cc1	9.76
CCC(c1nnnn1Cc1ccc(F)cc1)N1CCN(C)CC1 (centres unmarked)	14.3
O=C(N/N=C/c1ccc(-c2ccccc2C(=O)O)o1)c1cccs1	6.8
Cc1ccc(-c2nc(CSCC(=O)NCCN3CCN(Cc4ccccc4)CC3)c(C)o2)cc1	-27.2
Cc1ccc2oc(-c3ccc(NC(=O)c4ccncc4)cc3O)nc2c1	25.9
O=C(Nc1ccccc1C(=O)NC(Cc1ccccc1)C(=O)O)c1ccco1 (centres unmarked)	6.15
Cc1cc(C)c(S(=O)(=O)N2CCN(S(=O)(=O)N3CCC(C)CC3)CC2)c(C)c1	19.5
COc1cc(/C=N/NC(=O)COc2ccc(-n3cnnn3)cc2)ccc1OCC(N)=O	12.7
Cc1ccc(C(=O)COc2cc(O)c3c(=O)cc(-c4ccccc4)oc3c2)cc1	19.9
COc1ccc(C2CC(=O)C(C=NCC(C)C)=C(O)C2)cc1 (centres unmarked)	11.1

SMILES	hERG current change (%, negative = inhibition) at 1uM [%]
CCOc1cc(/C=N/NC(=O)CCc2n[nH]c(=O)[nH]c2=O)ccc1O	11.4
Cc1nc2ccccc2n1/N=C/c1ccc([N+](=O)[O-])s1	10.6
CCN(CC)CC(=O)N1N=C(c2cccs2)CC1c1ccco1 (centres unmarked)	-2.26
Nc1nc2ccc(S(=O)(=O)c3ccc4nc(N)sc4c3)cc2s1	7.21
COc1ccccc1NC(=S)N1CCCC1	4.96
CC(C)NC(=O)c1c2c(nc3ccccc13)CCCC2	7.92
COC(=O)C1=C(c2cccc(C#N)c2)C[C@@H]2CC[C@H]1N2C(=O)NCCc1ccccc1	-2.41
COC(=O)c1ccc(Oc2nc(N3CCCCC3)nc(N3CCOCC3)n2)cc1	4.1
COc1ccccc1NS(=O)(=O)c1ccc(C)c(C(N)=O)c1	1.81
COCCNC(=O)CSc1ccccc1C(=O)NC1CCCc2ccccc21 (centres unmarked)	12.5
CN(C)S(=O)(=O)c1cccc(NC(=O)c2ccc(S(=O)(=O)N3CCCC3)cc2)c1	6.62
CCCN(/C=N/c1sc2c(c1C#N)CCCCC2)CCC	5.57
O=S([O-])OC1CS(=O)(=O)CC1c1ccccc1.[Na+] (centres unmarked)	13.5
N#Cc1nc(COc2ccc(F)cc2)oc1N1CCCCC1	3.71
Cc1ccc2nc(NC(=O)CCNS(=O)(=O)c3ccc(Br)s3)sc2c1	-3.66
Cc1ccc(-c2nn(-c3ccc(F)cc3)cc2C(=O)N(C)CC(=O)Nc2ccc(N3CCOCC3)cc2)cc1	13.2
CCOC(=O)C1CCN(c2cc3c(cc2NC(=O)c2ccccc2Cl)n(C)c(=O)n3C)CC1	4.04
S=c1[nH]nc(-c2ccco2)n1/N=C/c1ccccn1	8.35
Nc1nc(SCC(=O)Nc2ccccc2)nc2nc3c(cc12)CCCC3	0.117
S=C(NCc1cccnc1)Nc1ccc(Oc2ccc(Cl)cc2)cc1	0.337
O=C(NCc1ccc2c(c1)OCO2)c1ccc2c(c1)C(=O)N(Cc1cccnc1)C2=O	8.7
CCCCN(CC)CCCNC(=O)c1cc2c(=O)[nH]c3ccccc3c2s1	14.9
C/C=C/c1ccc(OCC(=O)N(C)CC(=O)Nc2ccc(F)cc2)c(OC)c1	0.626

SMILES	hERG current change (%, negative = inhibition) at 1uM [%]
CCCCCCc1c(O)nc(SCCN(C)C)[nH]c1=O	12
Cc1ccc(OCCCCn2ccnc2)c(Cl)c1	-8.3
CCOCc1nnc(NC(=O)COc2ccc3c(c2)OCO3)s1	10.2
Cc1nnc(N)nc1C	12.1
Cc1cccc(C)c1NC(=O)CN(C)C(=O)c1ccccc1SCC(=O)N1CCCC1	16.9
CCSc1nc2sc3c(c2c(=O)n1-c1ccccc1)CCN(C)C3	9.54
CCCNC(=O)c1ccc(SC)cc1OC	-6.13
O=C(CN1CCN(c2ccc(F)cc2)CC1)N1CCOCC1	11.3
CS(=O)(=O)N1CCN(CC(=O)NC2CCCCC2)CC1	-0.545
CC(C)Oc1ccc(Br)cc1C(=O)N/N=C/c1c[nH]c2ccccc12	10.9
Cc1ccc(C)c(NC(=O)CSc2ccc(S(=O)(=O)N3CCCC3)cn2)c1	13.2
C/C(=C\C(=O)c1ccc(Br)cc1)NNC(=O)c1ccccc1	12.1
CCC/C(O)=C1\C(=O)CC(c2ccccc2)CC1=NC (centres unmarked)	7.46
COC(=O)CC(c1ccc(C(C)C)cc1)n1cccc1 (centres unmarked)	12.4
COC(=O)c1c(S(=O)(=O)N2CCOCC2)c(C)n(C)c1C	11.5
O=C(NCc1ccncc1)NC12CC3CC(CC(C3)C1)C2	7.34
Cc1[nH]c(=O)[nH]c(=O)c1S(=O)(=O)N1CCCc2ccccc21	18.6
Cn1ccc(C(=O)N/N=C/c2c[nH]c3ccccc23)n1	23.6
O=C(NCCCNC(=O)c1cnccn1)c1ccc(Cl)cc1	4.3
O=C(CN(CC1CCCO1)C(=O)CNS(=O)(=O)c1ccc(Cl)cc1)NCc1ccco1 (centres unmarked)	11.5
COc1ccc(C(C)=O)cc1CSCc1cc(C(C)=O)ccc1OC	14.6
COc1cc(NC(=O)C2CCCN(S(=O)(=O)c3ccc4c(c3)oc(=O)n4C)C2)cc(OC)c1 (centres unmarked)	3.86
CC(=O)Nc1c(-c2ccccc2Cl)c(=O)c2ccccc2n1C	5.54

SMILES	hERG current change (%, negative = inhibition) at 1uM [%]
C[C@H](NC(=O)[C@@H]1CCC(=O)N1Cc1ccco1)c1ccccc1	15.8
O=C(Nc1ccc(S(=O)(=O)Nc2cnc3ccccc3n2)cc1)c1ccc(Br)o1	-8.17
N#CCN(C(=O)COC(=O)C1CC2CCCC(C1)C2=O)c1ccccc1 (centres unmarked)	14.8
COc1cccc(C2C(C(=O)c3sc(C)nc3C)=C(O)C(=O)N2CCN2CCOCC2)c1OC (centres unmarked)	10.3
COCCCN1C(=O)c2ccc(C(=O)Nc3ccc(OC)cc3OC)cc2C1=O	6.39
O=[N+]([O-])c1cccc(S(=O)(=O)NCCCN2CCOCC2)c1	6.54
COc1ccc(CCN2C(=O)CSC2=Nc2ccc(C(C)C)cc2)cc1OC	13.9
CC(Nc1cc(N2CCN(C(=O)C(C)(C)C)CC2)ccc1[N+](=O)[O-])c1ccccc1 (centres unmarked)	4.91
O=C(NCc1ccco1)C12CN(Cc3ccccc3)CC1C(c1cccc([N+](=O)[O-])c1)=NO2 (centres unmarked)	-24.8
CCCC[C@@H]1C[C@H]1[C@@H](NC(=O)c1cccs1)c1ccc(C(F)(F)F)cc1	11.3
CC(=O)Nc1nc(Cn2nnc(-c3ccc4c(c3)OCO4)n2)nc(N(C)C)n1	-1.73
COc1ccc(C)cc1NC(=O)C(C)N1CCOCC1.Cl (centres unmarked)	13.7
N#CCCCn1c(O)c(N=NC(=O)C(O)c2ccccc2)c2ccccc21 (centres unmarked)	7.62
CCc1ccccc1N(CC(=O)O)S(C)(=O)=O	2.48
Cc1ccc(NC(=S)NC(=O)Cc2ccccc2)c(O)c1	10.6
CCCc1nnc(NC(=O)Cn2c(=O)oc3cc(Br)ccc32)s1	3.83
O=C(Nc1nc2ccccc2s1)c1ccc(OCC2CCCO2)cc1 (centres unmarked)	3.81
O=C(CSc1nc(=O)n(CCCN2CCOCC2)c2c1CCCC2)Nc1cccc([N+](=O)[O-])c1	-39.5
CN(C(=O)COc1ccc2c(-c3ccccc3)cc(=O)oc2c1)C1CCS(=O)(=O)C1 (centres unmarked)	6.88
CCN1C(=O)[C@@H]2[C@@H](c3ccc(-c4ccc(OC)cc4)cc3)N3CCCC[C@@]3(C(=O)OC)[C@@H]2C1=O.O=C(O)C(F)(F)F	4.79
